# Measurements reported in PubChem BioAssay AID1671194 (National Center for Advancing Translational Sciences (NCATS), 2021).
# The whole screen tested about 140,000 compounds, of which about 240 (0.17%) were called active. Inconclusive means that the source gave no clear call. Such entries were picked first, then a sample of the others. The call rests on the fitted dose curve; in most records, active means well fitted inhibition curve with a large enough effect; inconclusive means small, poorly fitted or top-dose-only effect; inactive means no such curve, though single readings can be large or run the other way. A potency beside an inconclusive call is a rough fit, not a confirmed value.
# Assay: Primary qHTS assay for inhibitors of alpha-synuclein gene (SNCA) expression; further: nearly all actives have a fitted effect of over 45% in size
# Settings: HEK-293 SNCA-luciferase knock-in, luminescence, 24 h; series mostly up to 57.2 µM
# Potency means the concentration at half of the fitted maximal effect; tags describe the fitted curve by direction and shape.
row,SMILES,Potency
1,O=S(=O)(c1ccc(Cl)cc1)c1nc(-c2ccccc2Br)oc1N1CCOCC1,"inconclusive: 5.01 µM [inhibitor, single point]"
2,Cc1cc(C)c(CN2CCC3(CCCN(C)C3=O)C2)c(-n2cccn2)c1 (centres undefined),"inconclusive: 15.8 µM [inhibitor, partial curve, poor fit]"
3,O=C1NC(=NC2CCCC2)C2(CCCN(CC3CC3)C2)N1c1cc(F)cc(F)c1 (centres undefined),"inconclusive: 8.91 µM [inhibitor, partial curve, poor fit]"
4,O=C1NC(C(=O)NCc2cccs2)Cn2cccc21 (centres undefined),"inconclusive: 3.16 µM [inhibitor, full curve, poor fit]"
5,COCCNC(=O)CC[C@]12CC[C@](C)(O)C[C@H]1C(C)(C)C[C@@H]2NCc1ccc(CO)o1,inactive
6,CCOC(=O)C1(Cc2ccccc2F)CCCN(C(=O)c2c(C)nc3sccn23)C1 (centres undefined),inactive
7,CCCCn1c(=O)[nH]c2cccnc21,inactive
8,Cc1ccc(CNC(=O)c2c[nH]c3ccc(S(=O)(=O)Nc4ccc(C(C)C)cc4)cc3c2=O)cc1,"inconclusive: 1.58 µM [inhibitor, partial curve, poor fit]"
9,CCCCN(CC)CCCNC(=O)c1cn(CC(C)C)c(=O)c2c1c1ccccc1n2C,"inconclusive: 39.8 µM [inhibitor, single point]"
10,FC(F)(F)c1ccc(N2C3CCC2CN(CC2CCCC2)C3)cc1,"inconclusive: 44.7 µM [inhibitor, single point]"
11,CN1CC(=O)N(C2CCNC2)Cc2c1ncnc2N1CCCN(Cc2ccccc2)CC1 (centres undefined),"inconclusive: 8.91 µM [inhibitor, single point]"
12,OC[C@@H]1CN(CC2CC2)C[C@H]1c1nc(-c2cccnc2)no1,inactive
13,Cc1cc(C)c([S+](=O)([O-])c2nnn3c2nc(NCc2ccncc2)c2ccccc23)c(C)c1,inactive
14,O=C(c1ccccc1C1CCNC1)N1CCC(Nc2ncccn2)CC1 (centres undefined),"inconclusive: 5.01 µM [inhibitor, full curve, poor fit]"
15,O=C(c1ccco1)N1CCCC(c2nn[nH]n2)C1 (centres undefined),inactive
16,CN(Cc1cccnc1)c1ccc2ncc(Nc3ccc4c(c3)OCO4)n2n1,inactive
17,CC1(C)[C@H](Cc2cc(CN3CCN(c4ccccc4)CC3)on2)C[C@@H]1NC(=O)Nc1ccc(F)cc1,"inconclusive: 31.6 µM [inhibitor, single point]"
18,COc1ccc(NC(=O)Cn2cnc3c(nc4n3CCCCC4)c2=O)c(OC)c1,"inconclusive: 14.1 µM [inhibitor, partial curve, poor fit]"
19,O=C(c1ccco1)N1CCn2c(nnc2[C@@H]2C[C@@H](O)CN2Cc2ccccc2)C1,"inconclusive: 39.8 µM [inhibitor, single point]"
20,Cc1ccc(Cn2c(C3CCN(C(=O)c4ccc(C)c(C)c4)CC3)n[nH]c2=O)cc1,"inconclusive: 31.6 µM [inhibitor, single point]"
21,Cc1cccc(CS(=O)(=O)CC2Nc3ccc(C(=O)NCc4ccccc4)cc3NC2=O)c1 (centres undefined),"inconclusive: 25.1 µM [inhibitor, single point]"
22,COc1cccc(-c2noc(CC3CCN(C(=O)c4cccc(Cl)c4)CC3)n2)c1,"inconclusive: 39.8 µM [inhibitor, single point]"

row,SMILES,Potency
1,COc1ccc(OC)c(-c2nc3c(C)cccc3cc2CN2CCCC(O)C2)c1 (centres undefined),"inconclusive: 20 µM [inhibitor, single point]"
2,CCOc1ccccc1CN1CCOCCNC(=O)[C@H]2CCCC[C@H]21,inactive
3,COc1ccccc1-c1nc(NCc2cccs2)c2ccccc2n1,"inconclusive: 11.2 µM [inhibitor, partial curve, poor fit]"
4,Cc1ccc(CNC(=O)c2cc(S(=O)(=O)N3CCCC(C)C3)cn2C)cc1 (centres undefined),"inconclusive: 39.8 µM [inhibitor, single point]"
5,CS(=O)(=O)Nc1cccc(-c2ccc3ncnc(Nc4ccc(F)cc4)c3c2)c1,"inconclusive: 17.8 µM [inhibitor, single point]"
6,Cc1ccccc1Nc1c(-c2cccc(O)c2)nc2ccc(Br)cn12,"inconclusive: 25.1 µM [inhibitor, single point]"
7,CCn1ccc(C(=O)N2CCC(N3C[C@H](O)C[C@H]3C(=O)NCc3cccc(OC)c3)CC2)n1,"inconclusive: 39.8 µM [inhibitor, single point]"
8,c1cc2c(cc1CN1CCCCC1)CNCCO2,inactive
9,CCN(CCCNC(=O)c1ccc(Sc2ccc(C)cc2)c(NC(C)=O)c1)c1cccc(C)c1,"inconclusive: 14.1 µM [inhibitor, partial curve, poor fit]"
10,CC1=C[C@@H](CC#N)[C@H](C(C)C)C[C@H]1CC(=O)NC1CCCCC1,inactive
11,CSc1cccc(NC(=O)Cn2c(Nc3cc(C)cc(C)c3)nc(C)cc2=O)c1,"inconclusive: 10 µM [inhibitor, partial curve, poor fit]"
12,COc1ccc(N2CCN(C(=O)c3ccc4c(c3)C(O)CCCCCN4C)CC2)cc1 (centres undefined),"inconclusive: 0.631 µM [inhibitor, full curve, poor fit]"
13,Cc1ccc(-c2noc([C@@H]3Cc4nc[nH]c4CN3Cc3ccc(N(C)C)cc3)n2)cc1,"inconclusive: 2.51 µM [inhibitor, full curve, poor fit]"
14,Cc1ccc(-c2ncc(C(=O)Nc3ccccc3Cl)c(-c3ccncc3)n2)cc1,"inconclusive: 39.8 µM [inhibitor, partial curve, poor fit]"
15,O=C(CCC1N=C2c3ccccc3N=C(SCc3ccccc3Cl)N2C1=O)NCc1cccs1 (centres undefined),"inconclusive: 2.82 µM [inhibitor, single point]"
16,Fc1ccc2nc([C@H]3CCN(Cc4ncc[nH]4)C3)[nH]c2c1,inactive
17,CC(C)Cc1ccc(S(=O)(=O)Nc2ccc3[nH]c(=O)[nH]c3c2)cc1,"inconclusive: 17.8 µM [inhibitor, single point]"
18,COCc1ccc2c(c1)c(OC(C)(C)C(=O)NCCCN1CCCC1=O)nn2CCC(C)C,inactive
19,C=CCCC(CN1CCSCC1)Oc1nccc(C)n1 (centres undefined),"inconclusive: 7.08 µM [inhibitor, full curve, poor fit]"
20,Cc1ccc(NC(=O)c2ccc3c(c2)N(C)C2CCCCN2C3=O)cc1Cl (centres undefined),inactive
21,Cn1nccc1C(=O)N1CCC(Oc2ccc(-c3noc(-c4ccccc4)n3)cc2)C1 (centres undefined),inactive
22,Cc1ccc(Cc2nc3ccccc3nc2SCC(=O)N2CCCCC2)cc1,"inconclusive: 39.8 µM [inhibitor, single point]"

row,SMILES,Potency
1,COCc1nc(-c2cccc(NC(=O)CC[C@H]3NC(=O)c4ccccc4NC3=O)c2)n[nH]1,"inconclusive: 8.91 µM [inhibitor, single point]"
2,COc1cc(F)ccc1-c1cc(C(=O)NCc2c(C)cc(C)[nH]c2=O)c2c(c1)ncn2C,"inconclusive: 35.5 µM [inhibitor, single point]"
3,O=c1oc2c(F)cc(F)cc2cc1S(=O)(=O)c1ccc(F)cc1,"inconclusive: 20 µM [inhibitor, single point]"
4,COc1cc(OC(F)(F)F)ccc1C(=O)N1CCC2CC(=O)NCCC2C1 (centres undefined),"inconclusive: 5.01 µM [inhibitor, single point]"
5,CCn1cnnc1CC1CCN(C(=O)NC)C1 (centres undefined),"inconclusive: 39.8 µM [inhibitor, single point]"
6,COCC(=O)N[C@@H]1CN(S(=O)(=O)c2cn(C)cn2)CC[C@@H]1c1nc(C)no1,"inconclusive: 39.8 µM [inhibitor, single point]"
7,CCOc1ccc(-c2nonc2NC(=O)c2oc3ccc(Cl)cc3c2C)cc1,"inconclusive: 39.8 µM [inhibitor, single point]"
8,Cc1ccccc1-c1nc2c(c(SCc3cccc(Cl)c3)n1)Cc1c(CO)cnc(C)c1O2,"inconclusive: 3.16 µM [inhibitor, partial curve, poor fit]"
9,CN1CCCN(CC(=O)N2CCN(C)C3(CCNC(=O)CC3)C2)CC1 (centres undefined),"inconclusive: 2.82 µM [inhibitor, partial curve, poor fit]"
10,COc1ccc(N2C(=O)C3(CCCCC3)C2C(=O)NCCc2c(C)noc2C)cc1 (centres undefined),"inconclusive: 6.31 µM [inhibitor, single point]"
11,Cc1n[nH]c(C)c1CCC(=O)NCC1CCN(c2cc(-c3ccc(F)cc3)[nH]n2)CC1,"inconclusive: 8.91 µM [inhibitor, single point]"
12,COc1cccc(CNC(=O)Cn2c(N3CCc4ccccc4C3)nc(C)cc2=O)c1,"inconclusive: 39.8 µM [inhibitor, single point]"
13,CCOc1ccccc1NC(=O)N1CC[C@H]2COC(=O)N(Cc3ccccc3)[C@H]2C1,inactive
14,CN(Cc1cn(C)c2ccccc12)C1CCc2nn(CC3CC3)c(=O)n2CC1 (centres undefined),"inconclusive: 39.8 µM [inhibitor, single point]"
15,COc1cccc(-c2ccc(CN3CCCC3C(=O)N3CCN(c4ncccn4)CC3)cc2)c1 (centres undefined),inactive
16,CCOc1ccc(CC(=O)NCCS(=O)(=O)N2CCN(c3ccccc3OC)CC2)cc1,inactive
17,O=C(Nc1ccc(F)cc1)c1ccc2c(c1)OCCN(C1CCC1)C2,inactive
18,CC1(c2ccccc2)N(Cc2ccccc2C#N)C(=O)OC12CCN(CCc1ccccc1)CC2 (centres undefined),"inconclusive: 3.98 µM [inhibitor, single point]"
19,CCOc1ccccc1C(=O)N1CCN(c2cc(-c3ccc(Cl)cc3)[nH]n2)CC1,inactive
20,CCC(C)NC(=O)CN1C(=O)NC2(CCC(C)CC2)C1=O (centres undefined),"inconclusive: 1.58 µM [inhibitor, full curve]"
